Key:
Details in all cases: 72 h
[1] = test system: Caco-2; assay: cell viability relative to DMSO; higher = less toxic
[2] = test system: Calu-3; assay: as above
[3] = test system: HepG2; assay: as above
[4] = test system: U2OS; assay: as above
[5] = test system: Vero E6; assay: as above
[6] = test system: Caco-2; assay: relative viability EC50 (midpoint between 100% and the lowest measured viability); higher = less toxic
[7] = test system: Calu-3; assay: as above
[8] = test system: HepG2; assay: as above
[9] = test system: U2OS; assay: as above
[10] = test system: Vero E6; assay: as above
[11] = test system: Caco-2; assay: drug sensitivity score (DSS) for viability; higher = more toxic; extreme values may be limits of the assay
[12] = test system: Calu-3; assay: as above
[13] = test system: HepG2; assay: as above
[14] = test system: U2OS; assay: as above
[15] = test system: Vero E6; assay: as above

CCC(C)C(C(=O)OCC[N+](C)(CC)CC)c1ccccc1 (stereo not given) [valethamate]
cell viability ([1]; 1 nM): 96.7% | cell viability ([1]; 10 nM): 93.2% | cell viability ([1]; 100 nM): 101% | cell viability ([1]; 1000 nM): 105% | cell viability ([1]; 10000 nM): 95.2% | cell viability ([2]; 1 nM): 90.5% | cell viability ([2]; 10 nM): 99% | cell viability ([2]; 100 nM): 103% | cell viability ([2]; 1000 nM): 103% | cell viability ([2]; 10000 nM): 102% | cell viability ([3]; 1 nM): 104% | cell viability ([3]; 10 nM): 91% | cell viability ([3]; 100 nM): 108% | cell viability ([3]; 1000 nM): 87% | cell viability ([3]; 10000 nM): 95.8% | cell viability ([4]; 1 nM): 99.2% | cell viability ([4]; 10 nM): 93.5% | cell viability ([4]; 100 nM): 100% | cell viability ([4]; 1000 nM): 99% | cell viability ([4]; 10000 nM): 108% | cell viability ([5]; 1 nM): 99.3% | cell viability ([5]; 10 nM): 99.1% | cell viability ([5]; 100 nM): 104% | cell viability ([5]; 1000 nM): 106% | cell viability ([5]; 10000 nM): 94.4% | relative viability EC50 [6]: > 10 µM | relative viability EC50 [7]: > 10 µM | relative viability EC50 [8]: > 10 µM | relative viability EC50 [9]: > 10 µM | relative viability EC50 [10]: > 10 µM | drug sensitivity score [11]: 0 | drug sensitivity score [12]: 0 | drug sensitivity score [13]: 0 | drug sensitivity score [14]: 0 | drug sensitivity score [15]: 0

— the supplement of paper PMC13380429
